In the supplement of paper PMC10126150:
Values marked as one replicate rest on one cluster of the flow cell; about a third of the high ones do not repeat.

Test system: ATP
Test: switch fluorescence ratio, 500 uM ATP over buffer (Cy3 cluster intensity, sum of 5 cycles each) (fold (ratio)); higher = stronger signal-on switching upon ATP binding; sequences stand for … in TCGTCGGCAGCGTCAGATGTGTATAAGAGACAGTTTTTTTTTTTTTTTTTTTTTTTTT…TC
Details: aptamer strand: ATP DNA aptamer (quencher-CACCTGGGGGAGTATTGCGGAGGAAGG + anchor), 100 nM annealed; ATP concentration: 500 uM; one replicate
Procedure, shortened: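 For every switch-domain sequence, the fluorescence ratio is the mean of per-cluster values, each being summed target-cycle Cy3 intensity over summed buffer-cycle Cy3 intensity. Clusters outside 100-1000 RFU were excluded. On a modified Illumina MiSeq flow-cell, the Cy3-labelled switching-strand clusters were annealed to 100 nM quencher-labelled ATP aptamer, imaged in selection buffer and then after 15 min with 500 uM ATP at 22 °C. Five such cycles were run, with NaOH stripping and re-annealing between them.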
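Also: ATP exposure 15 min at 22 °C before imaging.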

Row | Sequence | switch fluorescence ratio
1 | AGGTGGAGTC | 0.985
2 | GCTACTTGGA | 1.01
3 | AAATTTAGCC | 1.04
4 | AACGCCCATG | 0.993
5 | GCTGGGGAT | 0.989
6 | TATTGTGAGC | 1.01
7 | ACCCTCTTCC | 2.16
8 | ACACATGCTT | 1.01
9 | TTAACATATG | 1.04
10 | GCGGGACCGG | 0.993
11 | ATCAAGACGG | 1.05
12 | CGCTGCGGAA | 1
13 | ATGAAGGAGT | 1.01
14 | CTCGGGAGGG | 1.01
15 | GGGTTGATAA | 0.99
16 | ACACCAGGT | 4.57
17 | CGACTTGTTC | 1.05
18 | ATCCCAAATT | 0.97
19 | TCTTGCTAG | 1.02
20 | TAGTCGATAG | 1.01
21 | TTAGCTGACA | 1.01
22 | GATTATGGTG | 0.992
23 | CAAGCTTGAG | 1.07

Row | Sequence | switch fluorescence ratio
24 | AACCATTACA | 1.09
25 | CAATGACTGA | 1.02
26 | TGAATTGGTT | 0.976
27 | GGTCACCGC | 0.989
28 | ACGACAGCTC | 1.76
29 | CTTACATACA | 1.38
30 | CATCCCAGTG | 3.04
31 | ATACAGGAGT | 1
32 | ACATTGTGTT | 1.01
33 | ATTGGTAATG | 0.987
34 | TCTCATTCA | 0.99
35 | ATTGGTTCTC | 1.02
36 | GGTGTATGGA | 0.997
37 | CAGAAATTTG | 1.03
38 | GGTGTGCGTA | 1.07
39 | CTCCATTCTC | 1.21
40 | TAGTGTGTG | 0.994
41 | TACGAGTCCC | 0.998
42 | TAGAAGGGAG | 0.998
43 | TCCACTAATT | 1.03
44 | AACTAGTCTT | 0.974
45 | AGAGAAGTT | 0.976
46 | GGTCGATTTA | 1

Row | Sequence | switch fluorescence ratio
47 | CGTGCAAACT | 1.18
48 | TGAATGATTA | 1
49 | GCATGTTACC | 1.1
50 | AATGGGTACG | 0.996
51 | GGGAAGCTTG | 1.05
52 | CATAGTTCCG | 0.987
53 | GTGTAGCTAA | 1.06
54 | TCTGTACA | 0.992
55 | CTGATAAGGA | 0.979
56 | TCACCGAGTT | 1.05
57 | CTTGTGCGT | 1.03
58 | CTAAACTGGG | 1.08
59 | TGGGTGTAGT | 1.05
60 | AAGTGAGATT | 1.03
61 | ACTGCATGTT | 1.05
62 | AGATGCCGAT | 1
63 | TGCCGTATAC | 1.24
64 | CAAGGTGCGA | 1.02
65 | ATTTGCAGAC | 1.32
66 | GCCTTCTAAT | 1.02
67 | AAGGGGCAGA | 1.01
68 | GACCAATCAT | 0.998
69 | ATTCGGAAAC | 1.22

Row | Sequence | switch fluorescence ratio
70 | TCGCTGCGTG | 1.01
71 | TTCATATTTC | 1.14
72 | ATTCATCCCG | 1.02
73 | GGCGTTAAGA | 1.09
74 | AGCAAAATTT | 1.02
75 | ATTTCGTCTG | 0.984
76 | TCACCATACG | 1.41
77 | TCATTTAGTG | 0.963
78 | CTAGGGGAA | 0.973
79 | TATGAGGCGT | 1.02
80 | ATGCCAGATT | 1.01
81 | ACTTGTACAC | 1.23
82 | CGGCAAATCT | 1.38
83 | GGACGCGCAG | 0.95
84 | TCGCGACACT | 2.07
85 | GCTGAGAGAA | 1
86 | TTTAGTTCTT | 1.01
87 | TAAATAGATA | 0.974
88 | GAACGAGGTG | 1.02
89 | ACACGGGCTG | 1.02
90 | AGACTCTTGG | 1.02
91 | AGGGTTGGT | 1.01
92 | CAGTTGCGCG | 1

Row | Sequence | switch fluorescence ratio
93 | GAGGCTTTTG | 1.02
94 | CAAGCTAGTT | 0.976
95 | TCGACGAGG | 1.02
96 | TTCCAGATA | 1.09
97 | GCTAGAAAGG | 0.995
98 | CACTGTACC | 1.63
99 | ATAGGGATAC | 1.19
100 | TAAGTCCGGC | 0.946
101 | CCTTGGGGGC | 1.03
102 | TAGCAGTCTC | 1.24
103 | GTGCGCGGAT | 1.04
104 | TTATATTGG | 0.976
105 | AGCACTAGTG | 1.04
106 | GATTTTTACA | 0.982
107 | ACCGTGTAGG | 1.18
108 | ATGCAGCACG | 1.01
109 | CCACCCATAT | 1.66
110 | TAACAGGGGA | 1.05
111 | GCAAAATGA | 0.971
112 | AGGTTTTACA | 0.965
113 | CCACCAGATT | 1.25
114 | GATTGCGAAG | 0.999
115 | TTCAAGCGGA | 1.02

Row | Sequence | switch fluorescence ratio
116 | TAATTACATC | 1.01
117 | GAGTGGTAT | 1.02
118 | AAGGTGTCAA | 0.993
119 | GCTGCTCAGG | 1.08
120 | ATTTCGGCA | 1.02
121 | CGGAGTTCG | 1.02
122 | TTTTGTCAT | 1.01
123 | CTAATTAAAT | 0.98
124 | CTATCTTTGG | 0.982
125 | TTCAAGCAGT | 1.62
126 | CTGTAAGTAT | 1
127 | TGAAAACTT | 1.07
128 | ACAGCAGGG | 1.01
129 | TTGCTACCC | 1.13
130 | TCAAGGGCCC | 0.98
131 | TGAGGCGCTG | 0.995
132 | ACCATGATTG | 1.02
133 | TGGATACT | 0.96
134 | TATTTGCGAA | 0.977
135 | AGAATTGCCA | 1.03
136 | GTCTCCCCGT | 1.24
137 | AATGTCCCTT | 0.984
138 | GATATCCTTT | 0.996

Row | Sequence | switch fluorescence ratio
139 | ACCTCATGAA | 1.05
140 | GATGGCCGTT | 0.995
141 | CCGGACCTGG | 1.07
142 | GAGATGCCAT | 0.978
143 | TACGCTGGCA | 1.42
144 | ACCCTGACGG | 1.28
145 | AGTAAATAGC | 1.01
146 | CCCCGGTCTT | 1.07
147 | TAGTGCGCAG | 1.02
148 | GACGAATATA | 1.14
149 | TCGTGATGCG | 1
150 | TTGGGTTGCC | 0.977
151 | CCGTGCACAG | 1.35
152 | CGGGGCATTT | 0.962
153 | AATTGAACCC | 1.06
154 | CGGTGCGTGG | 1.02
155 | TTATGGAGGA | 0.941
156 | GGCGACTACT | 1.04
157 | GGATTTAACG | 1.02
158 | CCACTACTCT | 1.18
